Assay results taken from PMC5505701, “Somatostatin binds to the human amyloid β peptide and favors the formation of distinct oligomers” (eLife, 2017).

B1: NAD-dependent deacetylase sirtuin-2: human brain protein (protein, UniProt Q8IXJ6 2-389, looked up)
NAD-dependent protein …: AEPDPSHPLETQAGKVQEAQDSDSDSEGGAAGGEADMDFLRNLFSQTLSLGSQKERLLDELTLEGVARYMQSERCRRVICLVGAGISTSAGIPDFRSPSTGLYDNLEKYHLPYPEAIFEISYFKKHPEPFFALAKELYPGQFKPTICHYFMRLLKDKGLLLRCYTQNIDTLERIAGLEQEDLVEAHGTFYTSHCVSASCRHEYPLSWMKEKIFSEVTPKCEDCQSLVKPDIVFFGESLPARFFSCMQSDFLKVDLLLVMGTSLQVQPFASLISKAPLSTPRLLINKEKAGQSDPFLGMIMGLGGGMDFDSKKAYRDVAWLGECDQGCLALAELLGWKKELEDLVRREHASIDAQSGAGVPNPSTSASPKKSPPPAKDEARTTEREKPQ
B2: Heat shock protein, 60 kDa, mitochondrial: human brain protein (protein, UniProt P10809 27-573, looked up)
60 kDa heat shock protein, …: AKDVKFGADARALMLQGVDLLADAVAVTMGPKGRTVIIEQSWGSPKVTKDGVTVAKSIDLKDKYKNIGAKLVQDVANNTNEEAGDGTTTATVLARSIAKEGFEKISKGANPVEIRRGVMLAVDAVIAELKKQSKPVTTPEEIAQVATISANGDKEIGNIISDAMKKVGRKGVITVKDGKTLNDELEIIEGMKFDRGYISPYFINTSKGQKCEFQDAYVLLSEKKISSIQSIVPALEIANAHRKPLVIIAEDVDGEALSTLVLNRLKVGLQVVAVKAPGFGDNRKNQLKDMAIATGGAVFGEEGLTLNLEDVQPHDLGKVGEVIVTKDDAMLLKGKGDKAQIEKRIQEIIEQLDVTTSEYEKEKLNERLAKLSDGVAVLKVGGTSDVEVNEKKDRVTDALNATRAAVEEGIVLGGGCALLRCIPALDSLTPANEDQKIGIEIIKRTLKIPAMTIAKNAGVEGSLIVEKIMQSSSEVGYDAMAGDFVNMVEKGIIDPTKVVRTALLDAAGVASLLTTAEVVVTEIPKEEKDPGMGAMGGMGGGMGGGMF
B3: GSTT2 protein: human brain protein (protein, UniProt P0CG29 2-244, looked up)
Glutathione S-transferase …: GLELFLDLVSQPSRAVYIFAKKNGIPLELRTVDLVKGQHKSKEFLQINSLGKLPTLKDGDFILTESSAILIYLSCKYQTPDHWYPSDLQARARVHEYLGWHADCIRGTFGIPLWVQVLGPLIGVQVPKEKVERNRTAMDQALQWLEDKFLGDRPFLAGQQVTLADLMALEELMQPVALGYELFEGRPRLAAWRGRVEAFLGAELCQEAHSIILSILEQAAKKTLPTPSPEAYQAMLLRIARIP
B4: Peroxiredoxin-6: human brain protein (protein, UniProt P30041 2-224, looked up)
Peroxiredoxin-6: PGGLLLGDVAPNFEANTTVGRIRFHDFLGDSWGILFSHPRDFTPVCTTELGRAAKLAPEFAKRNVKLIALSIDSVEDHLAWSKDINAYNCEEPTEKLPFPIIDDRNRELAILLGMLDPAEKDEKGMPVTARVVFVFGPDKKLKLSILYPATTGRNFDEILRVVISLQLTAEKRVATPVDWKDGDSVMVLPTIPEEEAKKLFPKGVFTKELPSGKKYLRYTPQP
B5: Medium-chain specific acyl-CoA dehydrogenase: human brain protein (protein, UniProt P11310 26-421, looked up)
Medium-chain specific …: KANRQREPGLGFSFEFTEQQKEFQATARKFAREEIIPVAAEYDKTGEYPVPLIRRAWELGLMNTHIPENCGGLGLGTFDACLISEELAYGCTGVQTAIEGNSLGQMPIIIAGNDQQKKKYLGRMTEEPLMCAYCVTEPGAGSDVAGIKTKAEKKGDEYIINGQKMWITNGGKANWYFLLARSDPDPKAPANKAFTGFIVEADTPGIQIGRKELNMGQRCSDTRGIVFEDVKVPKENVLIGDGAGFKVAMGAFDKTRPVVAAGAVGLAQRALDEATKYALERKTFGKLLVEHQAISFMLAEMAMKVELARMSYQRAAWEVDSGRRNTYYASIAKAFAGDIANQLATDAVQILGGNGFNTEYPVEKLMRDAKIYQIYEGTSQIQRLIVAREHIDKYKN
B6: Peroxiredoxin-2: human brain protein (protein, UniProt P32119 2-198, looked up)
Peroxiredoxin-2: ASGNARIGKPAPDFKATAVVDGAFKEVKLSDYKGKYVVLFFYPLDFTFVCPTEIIAFSNRAEDFRKLGCEVLGVSVDSQFTHLAWINTPRKEGGLGPLNIPLLADVTRRLSEDYGVLKTDEGIAYRGLFIIDGKGVLRQITVNDLPVGRSVDEALRLVQAFQYTDEHGEVCPAGWKPGSDTIKPNVDDSKEYFSKHN
B7: Phosphoglycerate kinase 1: human brain protein (protein, UniProt P00558 2-417, looked up)
Phosphoglycerate kinase 1: SLSNKLTLDKLDVKGKRVVMRVDFNVPMKNNQITNNQRIKAAVPSIKFCLDNGAKSVVLMSHLGRPDGVPMPDKYSLEPVAVELKSLLGKDVLFLKDCVGPEVEKACANPAAGSVILLENLRFHVEEEGKGKDASGNKVKAEPAKIEAFRASLSKLGDVYVNDAFGTAHRAHSSMVGVNLPQKAGGFLMKKELNYFAKALESPERPFLAILGGAKVADKIQLINNMLDKVNEMIIGGGMAFTFLKVLNNMEIGTSLFDEEGAKIVKDLMSKAEKNGVKITLPVDFVTADKFDENAKTGQATVASGIPAGWMGLDCGPESSKKYAEAVTRAKQIVWNGPVGVFEWEAFARGTKALMDEVVKATSRGCITIIGGGDTATCCAKWNTEDKVSHVSTGGGASLELLEGKVLPGVDALSNI
B8: Dihydropyrimidinase-related protein 5: human brain protein (protein, UniProt Q9BPU6 1-564, looked up)
Dihydropyrimidinase-related …: MLANSASVRILIKGGKVVNDDCTHEADVYIENGIIQQVGRELMIPGGAKVIDATGKLVIPGGIDTSTHFHQTFMNATCVDDFYHGTKAALVGGTTMIIGHVLPDKETSLVDAYEKCRGLADPKVCCDYALHVGITWWAPKVKAEMETLVREKGVNSFQMFMTYKDLYMLRDSELYQVLHACKDIGAIARVHAENGELVAEGAKEALDLGITGPEGIEISRPEELEAEATHRVITIANRTHCPIYLVNVSSISAGDVIAAAKMQGKVVLAETTTAHATLTGLHYYHQDWSHAAAYVTVPPLRLDTNTSTYLMSLLANDTLNIVASDHRPFTTKQKAMGKEDFTKIPHGVSGVQDRMSVIWERGVVGGKMDENRFVAVTSSNAAKLLNLYPRKGRIIPGADADVVVWDPEATKTISASTQVQGGDFNLYENMRCHGVPLVTISRGRVVYENGVFMCAEGTGKFCPLRSFPDTVYKKLVQREKTLKVRGVDRTPYLGDVAVVVHPGKKEMGTPLADTPTRPVTRHGGMRDLHESSFSLSGSQIDDHVPKRASARILAPPGGRSSGIW
B9: 3-hydroxyisobutyryl-CoA hydrolase: human brain protein (protein, UniProt Q6NVY1 33-386, looked up)
3-hydroxyisobutyryl-CoA …: DAAEEVLLEKKGCTGVITLNRPKFLNALTLNMIRQIYPQLKKWEQDPETFLIIIKGAGGKAFCAGGDIRVISEAEKAKQKIAPVFFREEYMLNNAVGSCQKPYVALIHGITMGGGVGLSVHGQFRVATEKCLFAMPETAIGLFPDVGGGYFLPRLQGKLGYFLALTGFRLKGRDVYRAGIATHFVDSEKLAMLEEDLLALKSPSKENIASVLENYHTESKIDRDKSFILEEHMDKINSCFSANTVEEIIENLQQDGSSFALEQLKVINKMSPTSLKITLRQLMEGSSKTLQEVLTMEYRLSQACMRGHDFHEGVRAVLIDKDQSPKWKPADLKEVTEEDLNNHFKSLGSSDLKF

Tested on: oligomeric Aβ1-42 (biotin-oAβ1-42 bait)
Settings: enrichment relative to biotin-only saturated negative control matrix; human frontal lobe digitonin extract; TMT, three biological replicates; pH 8.0, 4°C overnight

Q: For B1, which “Experiment I B-oAβ1-42/B Ratio” value is on record?
A: Its value is 6.68.

Q: For B2, which “Experiment I B-oAβ1-42/B Ratio” value is on record?
A: Its value is 5.68.

Q: With B3 as the molecule, how does the “Experiment I B-oAβ1-42/B Ratio” value read?
A: Its value is 6.00.

Q: How did the “Experiment I B-oAβ1-42/B Ratio” value turn out when B4 was run?
A: The value was 6.69.

Q: B5 was tested. Which “Experiment I B-oAβ1-42/B Ratio” value did it give?
A: Its value is 6.39.

Q: How did the “Experiment I B-oAβ1-42/B Ratio” value turn out when B6 was run?
A: The value was 6.00.

Q: How did the “Experiment I B-oAβ1-42/B Ratio” value turn out when B7 was run?
A: Its value is 6.61.

Q: For B8, which “Experiment I B-oAβ1-42/B Ratio” value is on record?
A: The value was 7.05.

Q: B9 was tested. Which “Experiment I B-oAβ1-42/B Ratio” value did it give?
A: Its value is 5.27.
